In article PMC9174058:
Results are given in words; binding and its absence hold for the method and conditions named. In cells and extracts the contact can be indirect. Some entries that bind do so weakly or less than the wild type. Sequences can lack the tags named with a protein.

By UniProt entry, the sequences of proteins in these tests, tags left out. Where a name states a change or a piece, a line headed by the entry shows the natural chain unless it says otherwise. Residues count along the entry.
UniProt Q96P20: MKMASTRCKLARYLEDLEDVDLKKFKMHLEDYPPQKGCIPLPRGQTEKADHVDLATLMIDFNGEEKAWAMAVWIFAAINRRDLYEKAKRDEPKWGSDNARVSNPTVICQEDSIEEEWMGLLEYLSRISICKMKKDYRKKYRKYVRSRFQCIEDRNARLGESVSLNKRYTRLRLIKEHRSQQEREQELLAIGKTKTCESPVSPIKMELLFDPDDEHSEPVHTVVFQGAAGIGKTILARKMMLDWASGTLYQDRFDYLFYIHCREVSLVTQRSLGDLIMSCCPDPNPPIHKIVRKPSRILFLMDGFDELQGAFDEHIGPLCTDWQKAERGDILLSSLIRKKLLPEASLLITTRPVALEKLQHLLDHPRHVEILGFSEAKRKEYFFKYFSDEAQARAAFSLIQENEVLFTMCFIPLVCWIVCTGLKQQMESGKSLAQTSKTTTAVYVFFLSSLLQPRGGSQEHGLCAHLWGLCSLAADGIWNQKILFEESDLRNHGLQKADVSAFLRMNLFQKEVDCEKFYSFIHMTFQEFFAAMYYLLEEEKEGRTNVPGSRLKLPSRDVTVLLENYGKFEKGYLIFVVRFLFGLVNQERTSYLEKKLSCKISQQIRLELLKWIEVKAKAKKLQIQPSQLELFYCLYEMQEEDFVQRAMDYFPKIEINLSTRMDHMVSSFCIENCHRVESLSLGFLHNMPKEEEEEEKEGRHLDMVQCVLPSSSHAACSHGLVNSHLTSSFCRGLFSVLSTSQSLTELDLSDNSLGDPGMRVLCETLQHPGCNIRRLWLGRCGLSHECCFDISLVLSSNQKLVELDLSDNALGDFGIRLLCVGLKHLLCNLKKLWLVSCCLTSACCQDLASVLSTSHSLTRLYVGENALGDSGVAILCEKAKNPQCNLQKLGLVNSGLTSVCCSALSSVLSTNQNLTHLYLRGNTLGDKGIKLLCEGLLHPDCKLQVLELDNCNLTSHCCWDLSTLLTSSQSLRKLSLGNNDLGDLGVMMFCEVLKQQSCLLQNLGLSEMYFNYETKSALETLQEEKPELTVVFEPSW
UniProt Q9ULZ3: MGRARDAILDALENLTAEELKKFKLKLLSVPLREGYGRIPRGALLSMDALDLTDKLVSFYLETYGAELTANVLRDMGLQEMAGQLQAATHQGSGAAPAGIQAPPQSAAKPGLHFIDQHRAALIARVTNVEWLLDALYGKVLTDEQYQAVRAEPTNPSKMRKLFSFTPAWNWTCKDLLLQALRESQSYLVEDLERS
Flag-ASC^PYD: residues 1-91 of Q9ULZ3
UniProt Q9NPP4: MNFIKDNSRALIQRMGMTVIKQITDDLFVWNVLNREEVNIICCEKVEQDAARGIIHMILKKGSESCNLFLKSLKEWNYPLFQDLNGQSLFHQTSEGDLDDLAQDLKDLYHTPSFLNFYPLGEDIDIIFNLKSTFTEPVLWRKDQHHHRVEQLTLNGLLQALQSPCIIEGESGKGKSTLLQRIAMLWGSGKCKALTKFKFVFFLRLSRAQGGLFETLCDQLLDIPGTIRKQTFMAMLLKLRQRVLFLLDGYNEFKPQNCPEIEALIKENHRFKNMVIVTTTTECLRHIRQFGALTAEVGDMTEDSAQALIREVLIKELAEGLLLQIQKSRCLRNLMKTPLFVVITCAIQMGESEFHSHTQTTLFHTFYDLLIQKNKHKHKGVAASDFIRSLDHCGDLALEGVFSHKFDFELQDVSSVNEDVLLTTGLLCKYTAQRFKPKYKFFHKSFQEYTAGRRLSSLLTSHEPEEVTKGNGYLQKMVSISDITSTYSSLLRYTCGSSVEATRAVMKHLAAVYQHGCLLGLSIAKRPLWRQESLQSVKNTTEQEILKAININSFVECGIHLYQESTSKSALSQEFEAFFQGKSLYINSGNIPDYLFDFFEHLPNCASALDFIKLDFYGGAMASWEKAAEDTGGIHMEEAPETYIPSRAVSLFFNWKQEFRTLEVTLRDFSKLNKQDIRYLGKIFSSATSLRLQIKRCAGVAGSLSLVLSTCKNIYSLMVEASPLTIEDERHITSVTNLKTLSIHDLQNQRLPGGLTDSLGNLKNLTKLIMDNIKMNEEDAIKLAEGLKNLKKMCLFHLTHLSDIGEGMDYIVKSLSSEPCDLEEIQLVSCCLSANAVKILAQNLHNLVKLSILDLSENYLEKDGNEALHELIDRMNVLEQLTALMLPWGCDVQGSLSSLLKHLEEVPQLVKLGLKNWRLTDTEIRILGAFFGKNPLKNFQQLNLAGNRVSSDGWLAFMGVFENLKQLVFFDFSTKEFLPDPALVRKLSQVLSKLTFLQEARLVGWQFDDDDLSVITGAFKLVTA

Key:
[1] = target: T1, Flag-NLRP11^NACHT (human) (UniProt P59045); assay: co-IP; immobilised anti-Flag antibodies, lysates of transiently transfected HEK293 cells (Flag-NLRP11^NACHT with HA- or Myc-tagged partners); 50 mM HEPES pH 7.4, 10% glycerol, 2 mM EDTA, 1% NP-40, 180-800 mM NaCl; immunoblot for HA or Myc
T1 sequence: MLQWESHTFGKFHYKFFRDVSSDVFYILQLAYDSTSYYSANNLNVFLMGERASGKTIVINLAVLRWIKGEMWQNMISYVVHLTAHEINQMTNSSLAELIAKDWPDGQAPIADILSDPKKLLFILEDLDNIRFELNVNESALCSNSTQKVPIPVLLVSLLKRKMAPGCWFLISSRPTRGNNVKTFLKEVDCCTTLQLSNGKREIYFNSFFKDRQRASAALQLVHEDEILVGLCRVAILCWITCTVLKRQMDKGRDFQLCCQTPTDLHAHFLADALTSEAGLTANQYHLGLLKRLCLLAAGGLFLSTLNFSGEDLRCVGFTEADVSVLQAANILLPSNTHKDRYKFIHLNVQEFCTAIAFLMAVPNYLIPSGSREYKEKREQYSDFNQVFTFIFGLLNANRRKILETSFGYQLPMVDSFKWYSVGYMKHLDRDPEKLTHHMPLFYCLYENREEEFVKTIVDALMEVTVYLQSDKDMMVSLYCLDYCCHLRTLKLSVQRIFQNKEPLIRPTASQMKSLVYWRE

EGFP-NLRP11^LRR (human) = target: T2, EGFP-NLRP11^LRR (human) (UniProt P59045); assay: co-IP; immobilised anti-EGFP antibodies, lysates of transiently transfected HEK293 cells (EGFP-NLRP11^LRR with Myc-tagged partners); 50 mM HEPES pH 7.4, 10% glycerol, 2 mM EDTA, 1% NP-40, 150 mM NaCl; immunoblot for Myc
T2 sequence: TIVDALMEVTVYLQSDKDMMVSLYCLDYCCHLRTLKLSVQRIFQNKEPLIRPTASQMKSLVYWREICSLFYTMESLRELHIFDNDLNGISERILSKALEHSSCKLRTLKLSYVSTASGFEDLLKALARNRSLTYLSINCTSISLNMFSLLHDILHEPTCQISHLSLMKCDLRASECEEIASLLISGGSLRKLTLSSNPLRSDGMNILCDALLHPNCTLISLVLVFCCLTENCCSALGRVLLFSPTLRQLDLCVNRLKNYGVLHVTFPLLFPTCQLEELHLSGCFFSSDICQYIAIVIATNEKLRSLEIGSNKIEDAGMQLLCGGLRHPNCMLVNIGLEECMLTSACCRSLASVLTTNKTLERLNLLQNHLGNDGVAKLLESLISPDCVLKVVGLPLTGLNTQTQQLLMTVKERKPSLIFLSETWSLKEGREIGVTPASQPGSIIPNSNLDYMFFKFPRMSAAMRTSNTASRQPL

HA-NLRP11^PYD (human) = target: T3, HA-NLRP11^PYD (human) (UniProt P59045); assay: co-IP; immobilised anti-HA antibodies, lysates of transiently transfected HEK293 cells (PYD constructs); 50 mM HEPES pH 7.4, 10% glycerol, 2 mM EDTA, 1% NP-40, 100 mM NaCl; immunoblot for Myc
T3 sequence: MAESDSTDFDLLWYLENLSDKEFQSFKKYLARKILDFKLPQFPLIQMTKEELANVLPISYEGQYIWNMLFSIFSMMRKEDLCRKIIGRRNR

[2] = target: T1, Flag-NLRP11^NACHT (human); assay: co-IP; immobilised anti-Flag antibodies, transiently transfected HEK293 cells lysed in RIPA buffer (10 mM Tris-HCl pH 8.0, 1 mM EDTA, 0.5 mM EGTA, 1% Triton X-100, 0.1% sodium deoxycholate, 0.1% SDS, 140 mM NaCl)
[3] = target: T1, Flag-NLRP11^NACHT (human); assay: co-IP; immobilised anti-Flag antibodies, lysates of transiently transfected HEK293 cells, washed with increasing NaCl (200, 400, 600 and 800 mM)
HA-NLRP3^NACHT (human) = HA-NLRP3^NACHT (human) (UniProt Q96P20); assay: co-IP; immobilised anti-HA antibodies, lysates of transiently transfected HEK293 cells (NACHT constructs); 50 mM HEPES pH 7.4, 10% glycerol, 2 mM EDTA, 1% NP-40, 180-800 mM NaCl; immunoblot for Flag
Flag-ASC^PYD = Flag-ASC^PYD (UniProt Q9ULZ3); assay: co-IP; immobilised anti-Flag antibodies, lysates of transiently transfected HEK293 cells (PYD constructs); 50 mM HEPES pH 7.4, 10% glycerol, 2 mM EDTA, 1% NP-40, 100 mM NaCl; immunoblot for HA
[4] = target: ASC (endogenous, THP-1) (human (endogenous in THP-1)) (UniProt Q9ULZ3); assay: co-IP; immobilised anti-ASC antibodies, total cell lysates of NLRP11^KO or NLRP3^KO THP-1 cells restored with NLRP11-Flag or NLRP11^ΔPYD-Flag, primed (LPS or Pam3CSK4, 2 h) and activated with nigericin (5 uM, 10 min); immunoblot for Flag
[5] = target: NLRP3 (endogenous, THP-1) (human (endogenous in THP-1)) (UniProt Q96P20); assay: co-IP; immobilised anti-NLRP3 antibodies, total cell lysates of THP-1 cells (plain, NLRP11^KO or ASC^KD restored with NLRP11-Flag or NLRP11^ΔPYD-Flag) primed with LPS or Pam3CSK4 and activated with nigericin (5 uM, 10-45 min); 50 mM HEPES pH 7.4, 50-150 mM NaCl, 10% glycerol, 2 mM EDTA, 0.5% Triton X-100; 4 °C; immunoblot

Question: For Myc-NLRP3 (from UniProt Q96P20 1-1036), which binding [1] is on record?
Answer: The binding was “binds”.

Question: What about the binding (EGFP-NLRP11^LRR (human)) of the same molecule?
Answer: The binding was “binds”.

Question: How did the binding [1] turn out when Myc-NLRC4 (from UniProt Q9NPP4 1-1024) was run?
Answer: Its binding is “binds”.

Question: And the binding (EGFP-NLRP11^LRR (human))?
Answer: The binding was “no binding”.

Question: Which binding (HA-NLRP11^PYD (human)) does the source give for “Myc-NLRP3^PYD (from UniProt Q96P20 1-89) (domain or fragment)” here?
Answer: Its binding is “no binding”.

Question: Which binding [2] does the source give for “HA-NLRP3^NACHT (from UniProt Q96P20 220-389) (domain or fragment)” here?
Answer: The binding was “binds”.

Question: And the binding [3]?
Answer: Its binding is “binds”.

B1: Flag-NLRP11^NACHT (domain or fragment, UniProt P59045 105-624)
chain: MLQWESHTFGKFHYKFFRDVSSDVFYILQLAYDSTSYYSANNLNVFLMGERASGKTIVINLAVLRWIKGEMWQNMISYVVHLTAHEINQMTNSSLAELIAKDWPDGQAPIADILSDPKKLLFILEDLDNIRFELNVNESALCSNSTQKVPIPVLLVSLLKRKMAPGCWFLISSRPTRGNNVKTFLKEVDCCTTLQLSNGKREIYFNSFFKDRQRASAALQLVHEDEILVGLCRVAILCWITCTVLKRQMDKGRDFQLCCQTPTDLHAHFLADALTSEAGLTANQYHLGLLKRLCLLAAGGLFLSTLNFSGEDLRCVGFTEADVSVLQAANILLPSNTHKDRYKFIHLNVQEFCTAIAFLMAVPNYLIPSGSREYKEKREQYSDFNQVFTFIFGLLNANRRKILETSFGYQLPMVDSFKWYSVGYMKHLDRDPEKLTHHMPLFYCLYENREEEFVKTIVDALMEVTVYLQSDKDMMVSLYCLDYCCHLRTLKLSVQRIFQNKEPLIRPTASQMKSLVYWRE
Question: Which binding (HA-NLRP3^NACHT (human)) does the source give for B1 here?
Answer: Its binding is “binds”.

B2: HA-NLRP12^NACHT (domain or fragment, UniProt P59046 212-528)
chain: TVVMQGAAGIGKSMLAHKVMLDWADGKLFQGRFDYLFYINCREMNQSATECSMQDLIFSCWPEPSAPLQELIRVPERLLFIIDGFDELKPSFHDPQGPWCLCWEEKRPTELLLNSLIRKKLLPELSLLITTRPTALEKLHRLLEHPRHVEILGFSEAERKEYFYKYFHNAEQAGQVFNYVRDNEPLFTMCFVPLVCWVVCTCLQQQLEGGGLLRQTSRTTTAVYMLYLLSLMQPKPGAPRLQPPPNQRGLCSLAADGLWNQKILFEEQDLRKHGLDGEDVSAFLNMNIFQKDINCERYYSFIHLSFQEFFAAMYYIL
Question: How did the binding [2] turn out when B2 was run?
Answer: The binding was “binds”.

Question: And the binding [3]?
Answer: Its binding is “binds”.

Question: And the binding [1]?
Answer: The binding was “binds”.

B3: HA-NOD1^NACHT (domain or fragment, UniProt Q9Y239 133-435)
chain: LRHHLGRDSKFVLCYAQKEELLLEEIYMDTIMELVGFSNESLGSLNSLACLLDHTTGILNEQGETIFILGDAGVGKSMLLQRLQSLWATGRLDAGVKFFFHFRCRMFSCFKESDRLCLQDLLFKHYCYPERDPEEVFAFLLRFPHVALFTFDGLDELHSDLDLSRVPDSSCPWEPAHPLVLLANLLSGKLLKGASKLLTARTGIEVPRQFLRKKVLLRGFSPSHLRAYARRMFPERALQDRLLSQLEANPNLCSLCSVPLFCWIIFRCFQHFRAAFEGSPQLPDCTMTLTDVFLLVTEVHLNR
Question: How did the binding [1] turn out when B3 was run?
Answer: The binding was “binds”.

B4: HA-NLRP11^PYD (domain or fragment, UniProt P59045 1-91)
chain: MAESDSTDFDLLWYLENLSDKEFQSFKKYLARKILDFKLPQFPLIQMTKEELANVLPISYEGQYIWNMLFSIFSMMRKEDLCRKIIGRRNR
Question: Which binding (Flag-ASC^PYD) does the source give for B4 here?
Answer: Its binding is “binds”.

B5: NLRP11^ΔPYD-Flag (domain or fragment, UniProt P59045 104-1033)
chain: FMLQWESHTFGKFHYKFFRDVSSDVFYILQLAYDSTSYYSANNLNVFLMGERASGKTIVINLAVLRWIKGEMWQNMISYVVHLTAHEINQMTNSSLAELIAKDWPDGQAPIADILSDPKKLLFILEDLDNIRFELNVNESALCSNSTQKVPIPVLLVSLLKRKMAPGCWFLISSRPTRGNNVKTFLKEVDCCTTLQLSNGKREIYFNSFFKDRQRASAALQLVHEDEILVGLCRVAILCWITCTVLKRQMDKGRDFQLCCQTPTDLHAHFLADALTSEAGLTANQYHLGLLKRLCLLAAGGLFLSTLNFSGEDLRCVGFTEADVSVLQAANILLPSNTHKDRYKFIHLNVQEFCTAIAFLMAVPNYLIPSGSREYKEKREQYSDFNQVFTFIFGLLNANRRKILETSFGYQLPMVDSFKWYSVGYMKHLDRDPEKLTHHMPLFYCLYENREEEFVKTIVDALMEVTVYLQSDKDMMVSLYCLDYCCHLRTLKLSVQRIFQNKEPLIRPTASQMKSLVYWREICSLFYTMESLRELHIFDNDLNGISERILSKALEHSSCKLRTLKLSYVSTASGFEDLLKALARNRSLTYLSINCTSISLNMFSLLHDILHEPTCQISHLSLMKCDLRASECEEIASLLISGGSLRKLTLSSNPLRSDGMNILCDALLHPNCTLISLVLVFCCLTENCCSALGRVLLFSPTLRQLDLCVNRLKNYGVLHVTFPLLFPTCQLEELHLSGCFFSSDICQYIAIVIATNEKLRSLEIGSNKIEDAGMQLLCGGLRHPNCMLVNIGLEECMLTSACCRSLASVLTTNKTLERLNLLQNHLGNDGVAKLLESLISPDCVLKVVGLPLTGLNTQTQQLLMTVKERKPSLIFLSETWSLKEGREIGVTPASQPGSIIPNSNLDYMFFKFPRMSAAMRTSNTASRQPL
Question: B5 was tested. Which binding [4] did it give?
Answer: Its binding is “no binding”.

Question: And the binding [5]?
Answer: The binding was “no binding”.

B6: Myc-pyrin (protein, UniProt O15553 1-781)
chain: MAKTPSDHLLSTLEELVPYDFEKFKFKLQNTSVQKEHSRIPRSQIQRARPVKMATLLVTYYGEEYAVQLTLQVLRAINQRLLAEELHRAAIQEYSTQENGTDDSAASSSLGENKPRSLKTPDHPEGNEGNGPRPYGGGAASLRCSQPEAGRGLSRKPLSKRREKASEGLDAQGKPRTRSPALPGGRSPGPCRALEGGQAEVRLRRNASSAGRLQGLAGGAPGQKECRPFEVYLPSGKMRPRSLEVTISTGEKAPANPEILLTLEEKTAANLDSATEPRARPTPDGGASADLKEGPGNPEHSVTGRPPDTAASPRCHAQEGDPVDGTCVRDSCSFPEAVSGHPQASGSRSPGCPRCQDSHERKSPGSLSPQPLPQCKRHLKQVQLLFCEDHDEPICLICSLSQEHQGHRVRPIEEVALEHKKKIQKQLEHLKKLRKSGEEQRSYGEEKAVSFLKQTEALKQRVQRKLEQVYYFLEQQEHFFVASLEDVGQMVGQIRKAYDTRVSQDIALLDALIGELEAKECQSEWELLQDIGDILHRAKTVPVPEKWTTPQEIKQKIQLLHQKSEFVEKSTKYFSETLRSEMEMFNVPELIGAQAHAVNVILDAETAYPNLIFSDDLKSVRLGNKWERLPDGPQRFDSCIIVLGSPSFLSGRRYWEVEVGDKTAWILGACKTSISRKGNMTLSPENGYWVVIMMKENEYQASSVPPTRLLIKEPPKRVGIFVDYRVGSISFYNVTARSHIYTFASCSFSGPLQPIFSPGTRDGGKNTAPLTICPVGGQGPD
Question: What does the source list for B6?
Answer: binding [1]: no binding; binding (EGFP-NLRP11^LRR (human)): no binding
